# Results taken from the supplement of paper PMC8728848.
# Some of the results follow.
# B1: PhoSpL (Pholiota squarrosa) (peptide)
# chain: APVPVTKLVCDGDTYKCTAYLDFGDGRWVAQWDTNVFHTG
# How the values were obtained:
# Assay in all cases: glycan array binding signal (z-score within array); higher = stronger binding
# Conditions in all cases: glycan notation: IUPAC condensed, linker removed
# [1] = molecular target: Neu5Ac(a2-3)Gal(b1-4)GlcNAc(b1-2)Man(a1-3)[Neu5Ac(a2-6)Gal(b1-4)GlcNAc(b1-2)Man(a1-6)]Man(b1-4)GlcNAc(b1-4)GlcNAc
# Outline: (§1)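 Glycan array data were curated from 3228 arrays in the Consortium for Functional Glycomics database and kept only where the protein sequence was available. Glycan names were converted to IUPAC-condensed notation, and columns mapping to the same glycan were averaged. The binding signal is a within-array Z-score, averaged across arrays of the same protein sequence at different concentrations or buffers and across linkers. Negative Z-scores can be read as non-binding.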
# [2] = molecular target: Neu5Ac(a2-3)Gal(b1-4)GlcNAc(b1-2)[Neu5Ac(a2-3)Gal(b1-4)GlcNAc(b1-4)]Man(a1-3)[GlcNAc(b1-4)][Neu5Ac(a2-3)Gal(b1-4)GlcNAc(b1-2)[Neu5Ac(a2-3)Gal(b1-4)GlcNAc(b1-6)]Man(a1-6)]Man(b1-4)GlcNAc(b1-4)GlcNAc
# Outline: as §1
# [3] = molecular target: Neu5Ac(a2-3)Gal(b1-4)GlcNAc(b1-2)[Neu5Ac(a2-3)Gal(b1-4)GlcNAc(b1-4)]Man(a1-3)[GlcNAc(b1-4)][Neu5Ac(a2-3)Gal(b1-4)GlcNAc(b1-4)Man(a1-6)]Man(b1-4)GlcNAc(b1-4)GlcNAc
# Outline: as §1
# [4] = molecular target: Neu5Ac(a2-3)Gal(b1-4)GlcNAc(b1-2)[Neu5Ac(a2-3)Gal(b1-4)GlcNAc(b1-6)]Man(a1-6)[Neu5Ac(a2-3)Gal(b1-4)GlcNAc(b1-2)Man(a1-3)][GlcNAc(b1-4)]Man(b1-4)GlcNAc(b1-4)GlcNAc
# Outline: as §1
# [5] = molecular target: Neu5Ac(a2-3)Gal(b1-4)GlcNAc(b1-3)Gal
# Outline: as §1
# [6] = molecular target: Neu5Ac(a2-3)Gal(b1-4)GlcNAc(b1-3)Gal(b1-3)GlcNAc
# Outline: as §1
# [7] = molecular target: Neu5Ac(a2-3)Gal(b1-4)GlcNAc(b1-3)Gal(b1-4)GlcNAc
# Outline: as §1
# [8] = molecular target: Neu5Ac(a2-3)Gal(b1-4)GlcNAc(b1-3)Gal(b1-4)GlcNAc(b1-2)Man(a1-3)[Neu5Ac(a2-3)Gal(b1-4)GlcNAc(b1-3)Gal(b1-4)GlcNAc(b1-2)Man(a1-6)]Man(b1-4)GlcNAc(b1-4)GlcNAc
# Outline: as §1
# [9] = molecular target: Neu5Ac(a2-3)Gal(b1-4)GlcNAc(b1-3)Gal(b1-4)GlcNAc(b1-3)Gal(b1-4)GlcNAc
# Outline: as §1
# [10] = molecular target: Neu5Ac(a2-3)Gal(b1-4)GlcNAc(b1-3)Gal(b1-4)GlcNAc(b1-3)Gal(b1-4)GlcNAc(b1-2)Man(a1-3)[Neu5Ac(a2-3)Gal(b1-4)GlcNAc(b1-3)Gal(b1-4)GlcNAc(b1-3)Gal(b1-4)GlcNAc(b1-2)Man(a1-6)]GalNAc
# Outline: as §1
# [11] = molecular target: Neu5Ac(a2-3)Gal(b1-4)GlcNAc(b1-3)Gal(b1-4)GlcNAc(b1-3)GalNAc
# Outline: as §1
# [12] = molecular target: Neu5Ac(a2-3)Gal(b1-4)GlcNAc(b1-3)Gal(b1-4)GlcNAc(b1-3)[Neu5Ac(a2-3)Gal(b1-4)GlcNAc(b1-3)Gal(b1-4)GlcNAc(b1-6)]GalNAc
# Outline: as §1
# [13] = molecular target: Neu5Ac(a2-3)Gal(b1-4)GlcNAc(b1-3)Gal(b1-4)GlcNAc(b1-6)[Gal(b1-3)]GalNAc
# Outline: as §1
# [14] = molecular target: Neu5Ac(a2-3)Gal(b1-4)GlcNAc(b1-3)Gal(b1-4)[Fuc(a1-3)]GlcNAc
# Outline: as §1
# [15] = molecular target: Neu5Ac(a2-3)Gal(b1-4)GlcNAc(b1-3)GalNAc
# Outline: as §1
# [16] = molecular target: Neu5Ac(a2-3)Gal(b1-4)GlcNAc(b1-3)[Neu5Ac(a2-3)Gal(b1-4)GlcNAc(b1-6)]GalNAc
# Outline: as §1
# [17] = molecular target: Neu5Ac(a2-3)Gal(b1-4)GlcNAc(b1-6)GalNAc
# Outline: as §1
# [18] = molecular target: Neu5Ac(a2-3)Gal(b1-4)GlcNAc(b1-6)[Gal(b1-3)]GalNAc
# Outline: as §1
# [19] = molecular target: Neu5Ac(a2-3)Gal(b1-4)GlcNAc(b1-6)[Neu5Ac(a2-3)Gal(b1-3)]GalNAc
# Outline: as §1
# [20] = molecular target: Neu5Ac(a2-3)Gal(b1-4)GlcNAc6S
# Outline: as §1
# [21] = molecular target: Neu5Ac(a2-3)Gal(b1-4)[Fuc(a1-3)]GlcNAc
# Outline: as §1
# [22] = molecular target: Neu5Ac(a2-3)Gal(b1-4)[Fuc(a1-3)]GlcNAc(b1-2)Man
# Outline: as §1
# [23] = molecular target: Neu5Ac(a2-3)Gal(b1-4)[Fuc(a1-3)]GlcNAc(b1-3)Gal
# Outline: as §1
# [24] = molecular target: Neu5Ac(a2-3)Gal(b1-4)[Fuc(a1-3)]GlcNAc(b1-3)Gal(b1-4)GlcNAc
# Outline: as §1
# [25] = molecular target: Neu5Ac(a2-3)Gal(b1-4)[Fuc(a1-3)]GlcNAc(b1-3)Gal(b1-4)[Fuc(a1-3)]GlcNAc(b1-3)Gal(b1-4)[Fuc(a1-3)]GlcNAc
# Outline: as §1
# [26] = molecular target: Neu5Ac(a2-3)Gal(b1-4)[Fuc(a1-3)]GlcNAc(b1-3)GalNAc
# Outline: as §1
# [27] = molecular target: Neu5Ac(a2-3)Gal(b1-4)[Fuc(a1-3)]GlcNAc(b1-6)[Gal(b1-3)]GalNAc
# Outline: as §1
# [28] = molecular target: Neu5Ac(a2-3)Gal(b1-4)[Fuc(a1-3)]GlcNAc(b1-6)[Neu5Ac(a2-3)Gal(b1-3)]GalNAc
# Outline: as §1
# [29] = molecular target: Neu5Ac(a2-3)Gal(b1-4)[Fuc(a1-3)]GlcNAc6S
# Outline: as §1
# [30] = molecular target: Neu5Ac(a2-3)Gal6S(b1-4)GlcNAc
# Outline: as §1
# [31] = molecular target: Neu5Ac(a2-3)Gal6S(b1-4)[Fuc(a1-3)]GlcNAc
# Outline: as §1
# Neu5Ac(a2-3)GalNAc = molecular target: Neu5Ac(a2-3)GalNAc
# Outline: as §1
# [32] = molecular target: Neu5Ac(a2-3)GalNAc(b1-4)GlcNAc
# Outline: as §1
# [33] = molecular target: Neu5Ac(a2-3)[GalNAc(b1-4)]Gal(b1-4)Glc
# Outline: as §1
# [34] = molecular target: Neu5Ac(a2-3)[GalNAc(b1-4)]Gal(b1-4)GlcNAc
# Outline: as §1
# [35] = molecular target: Neu5Ac(a2-3)[GalNAc(b1-4)]Gal(b1-4)GlcNAc(b1-3)GalNAc
# Outline: as §1
# [36] = molecular target: Neu5Ac(a2-3)[Neu5Ac(a2-6)]GalNAc
# Outline: as §1
# Neu5Ac(a2-6)Gal = molecular target: Neu5Ac(a2-6)Gal
# Outline: as §1
# [37] = molecular target: Neu5Ac(a2-6)Gal(b1-3)GlcNAc(b1-3)[Gal(b1-4)GlcNAc(b1-6)]Gal(b1-4)Glc
# Outline: as §1
# Neu5Ac(a2-6)Gal(b1-4)Glc = molecular target: Neu5Ac(a2-6)Gal(b1-4)Glc
# Outline: as §1
# [38] = molecular target: Neu5Ac(a2-6)Gal(b1-4)GlcNAc
# Outline: as §1
# [39] = molecular target: Neu5Ac(a2-6)Gal(b1-4)GlcNAc(b1-2)Man
# Outline: as §1
# [40] = molecular target: Neu5Ac(a2-6)Gal(b1-4)GlcNAc(b1-2)Man(a1-3)Man(b1-4)GlcNAc(b1-4)GlcNAc
# Outline: as §1
# [41] = molecular target: Neu5Ac(a2-6)Gal(b1-4)GlcNAc(b1-2)Man(a1-3)[Gal(b1-4)GlcNAc(b1-2)Man(a1-6)]Man(b1-4)GlcNAc(b1-4)GlcNAc
# Outline: as §1
# [42] = molecular target: Neu5Ac(a2-6)Gal(b1-4)GlcNAc(b1-2)Man(a1-3)[GlcNAc(b1-2)Man(a1-6)]Man(b1-4)GlcNAc(b1-4)GlcNAc
# Outline: as §1
binder,measurement,setting,value
B1,glycan array binding signal (z-score),[1],-0.013
same,glycan array binding signal (z-score),[2],-0.261
same,glycan array binding signal (z-score),[3],-0.329
same,glycan array binding signal (z-score),[4],-0.272
same,glycan array binding signal (z-score),[5],-0.465
same,glycan array binding signal (z-score),[6],-0.135
same,glycan array binding signal (z-score),[7],0.503
same,glycan array binding signal (z-score),[8],0.453
same,glycan array binding signal (z-score),[9],-0.644
same,glycan array binding signal (z-score),[10],0.858
same,glycan array binding signal (z-score),[11],0.1
same,glycan array binding signal (z-score),[12],-0.169
same,glycan array binding signal (z-score),[13],-0.091
same,glycan array binding signal (z-score),[14],-0.102
same,glycan array binding signal (z-score),[15],0.082
same,glycan array binding signal (z-score),[16],-0.062
same,glycan array binding signal (z-score),[17],-0.386
same,glycan array binding signal (z-score),[18],0.254
same,glycan array binding signal (z-score),[19],-0.322
same,glycan array binding signal (z-score),[20],0.087
same,glycan array binding signal (z-score),[21],-0.269
same,glycan array binding signal (z-score),[22],-0.453
same,glycan array binding signal (z-score),[23],-0.313
same,glycan array binding signal (z-score),[24],0.226
same,glycan array binding signal (z-score),[25],-0.411
same,glycan array binding signal (z-score),[26],0.095
same,glycan array binding signal (z-score),[27],-0.241
same,glycan array binding signal (z-score),[28],-0.195
same,glycan array binding signal (z-score),[29],-0.286
same,glycan array binding signal (z-score),[30],-0.448
same,glycan array binding signal (z-score),[31],-0.824
same,glycan array binding signal (z-score),Neu5Ac(a2-3)GalNAc,0.028
same,glycan array binding signal (z-score),[32],-0.046
same,glycan array binding signal (z-score),[33],-0.38
same,glycan array binding signal (z-score),[34],-0.438
same,glycan array binding signal (z-score),[35],0.249
same,glycan array binding signal (z-score),[36],-0.123
same,glycan array binding signal (z-score),Neu5Ac(a2-6)Gal,-0.245
same,glycan array binding signal (z-score),[37],0.041
same,glycan array binding signal (z-score),Neu5Ac(a2-6)Gal(b1-4)Glc,-0.201
same,glycan array binding signal (z-score),[38],-0.059
same,glycan array binding signal (z-score),[39],0.065
same,glycan array binding signal (z-score),[40],-0.169
same,glycan array binding signal (z-score),[41],0.874
same,glycan array binding signal (z-score),[42],-0.094
